# Results as given in PMC4336329 (PLoS ONE, 2015).
# Out of some 310,000 compounds screened, about 14,000 (4.5%) showed an effect of 50% or more. Effects have a minus sign here. Some of the results follow.
# Biological target: human ether-à-go-go-related gene (hERG) potassium channel (human, UniProt Q12809)
# Assay: primary screen, population patch clamp on CHO cells stably expressing hERG
# 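Further: peak tail current of the secondary pulse compared with the same well before compound.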
# Chain of human ether-à-go-go-related gene (hERG) potassium channel (Q12809 whole entry, looked up): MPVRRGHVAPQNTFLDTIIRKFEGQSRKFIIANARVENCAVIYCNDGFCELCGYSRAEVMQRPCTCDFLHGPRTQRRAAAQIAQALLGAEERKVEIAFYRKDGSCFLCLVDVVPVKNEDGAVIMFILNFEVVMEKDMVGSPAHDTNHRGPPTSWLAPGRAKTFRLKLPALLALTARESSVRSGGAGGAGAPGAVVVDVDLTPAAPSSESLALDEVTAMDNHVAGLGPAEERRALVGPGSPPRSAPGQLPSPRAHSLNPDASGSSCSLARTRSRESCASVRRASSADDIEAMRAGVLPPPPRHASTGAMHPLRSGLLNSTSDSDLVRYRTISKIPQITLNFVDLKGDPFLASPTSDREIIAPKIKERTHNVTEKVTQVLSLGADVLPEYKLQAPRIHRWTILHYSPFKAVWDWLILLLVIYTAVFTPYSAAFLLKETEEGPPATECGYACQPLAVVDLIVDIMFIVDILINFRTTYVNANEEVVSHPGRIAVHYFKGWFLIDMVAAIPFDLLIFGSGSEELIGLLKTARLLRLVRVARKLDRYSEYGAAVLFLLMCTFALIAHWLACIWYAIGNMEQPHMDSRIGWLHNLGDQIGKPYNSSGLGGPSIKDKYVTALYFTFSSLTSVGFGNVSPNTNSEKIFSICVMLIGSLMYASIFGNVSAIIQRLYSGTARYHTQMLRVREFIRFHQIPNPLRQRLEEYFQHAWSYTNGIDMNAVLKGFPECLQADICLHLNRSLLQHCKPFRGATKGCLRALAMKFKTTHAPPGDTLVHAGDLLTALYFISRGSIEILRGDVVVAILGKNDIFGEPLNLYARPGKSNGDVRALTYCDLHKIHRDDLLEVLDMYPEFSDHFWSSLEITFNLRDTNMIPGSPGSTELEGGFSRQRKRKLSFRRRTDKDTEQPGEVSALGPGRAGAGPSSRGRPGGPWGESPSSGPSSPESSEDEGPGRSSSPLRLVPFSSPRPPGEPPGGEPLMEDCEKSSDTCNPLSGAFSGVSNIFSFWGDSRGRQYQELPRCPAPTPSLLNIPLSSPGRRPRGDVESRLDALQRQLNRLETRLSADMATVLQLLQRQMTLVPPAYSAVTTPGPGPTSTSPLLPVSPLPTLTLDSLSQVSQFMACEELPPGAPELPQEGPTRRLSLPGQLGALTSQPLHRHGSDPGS
row,SMILES,"hERG current change (%, negative = inhibition) at 10uM"
1,O=C(NCCc1nnc2ccc(NCc3ccc(Cl)cc3)nn12)c1ccccc1,-14.8%
2,COCCCNC(=O)c1c[nH]c2ccc(S(=O)(=O)N(C)c3ccccc3C)cc2c1=O,-4.77%
3,CCC(=O)NC(=S)Nc1ccc(NC(=O)COc2ccc([N+](=O)[O-])cc2)cc1,-2%
4,COC(=O)C1=C(C)N(C)C(=S)NC1c1cc(OC)ccc1OC (stereo not drawn),-0.711%
5,CCCN(CCC)C(=O)c1oc2ccccc2c1NC(=O)Cc1cccc(OC)c1,4.67%
6,Cc1ccc(C(O)c2ccc(-n3ccnc3)cc2)cc1 (stereo not drawn),-1.74%
7,COc1ccc(-c2csc(N(CC3CCCO3)C(=O)c3cccs3)n2)cc1 (stereo not drawn),-11.4%
8,CCc1ccc(NC(=O)c2ccc3c(=O)n4c(nc3c2)CCCCC4)cc1,-46.8%
9,COc1ccc(/C=N/NC(=O)c2cc3c(OC)ccc(OC)c3[nH]2)cc1O,19.1%
10,C=CC1=C2C=C(C3CC3)N(C3CC3)C=C2C(=O)C(C)(OC(=O)c2ccco2)C1=O (stereo not drawn),0.53%
11,NC(=O)NC(=O)CC1S/C(=N/N=C/c2ccccc2)NC1=O (stereo not drawn),16.9%
12,Cc1ccc(NC(=O)Cn2c(=O)n(CCC(=O)NC3CCN(Cc4ccccc4)CC3)c(=O)c3ccccc32)cc1,-1.53%
13,Cc1ccc(C2(c3noc(CN(C)Cc4cccnc4)n3)CCCC2)cc1,-2.8%
14,C/C(=N\Nc1cccc2cccnc12)c1ccccc1O,12.4%
15,CCCOc1nc2c(c(=O)n(C)c(=O)n2C)n1Cc1cccc2ccccc12,-4.43%
16,CC(C)(C)NC(=O)CN(C(=O)CCN1CCCc2ccccc21)C(C)(C)C,-0.396%
17,CCc1ccc(Nc2nnc(SCC(=O)N(C)CC(=O)Nc3ccccc3CC)s2)cc1,-14.8%
18,COC(=O)C1=C(C)N(c2ccc(OC)c(OC)c2)C(=O)/C1=C\c1cccs1,14.6%
19,Cn1c(=O)oc2cc(S(=O)(=O)N3CCC(C(=O)N4CCN(c5ccccc5)CC4)CC3)ccc21,-10.2%
20,CCN(CC)C(=O)Nc1c(C)n(C)n(-c2ccccc2)c1=O,0.329%
21,Cn1ccnc1SCC(=O)NC1(C#N)CCCCC1,6.91%

row,SMILES,"hERG current change (%, negative = inhibition) at 10uM"
1,O=C(Nc1nc(-c2ccccc2)ns1)c1cccs1,-3.32%
2,CCN1CCN(Cc2ccc(NC(=O)c3ccc(C)c(NC(=O)c4nccn4C)c3)cc2C(F)(F)F)CC1,-4.82%
3,Cc1c(-c2nc(N)nc(Nc3ccccc3)n2)oc2ccccc12,13%
4,COc1ccc(C(=O)CCc2nc3ccccc3s2)cc1,4.87%
5,Cc1cccc(-n2cc(-c3ccc([N+](=O)[O-])cc3)[nH]c2=S)c1,-2.96%
6,O=C(COC(=O)c1ccccc1SCC(=O)N1CCCC1)Nc1ccc(OC(F)F)cc1,-48%
7,CC(C)Cn1c(N2CCN(CC(=O)Nc3ccc(Cl)cc3)CC2)nc2ccccc21,-70.5%
8,O=C(CCC(=O)n1ncc2ccccc21)NCc1ccccc1Cl,6.63%
9,O=c1[nH]c(C2CCN(S(=O)(=O)c3ccc(C(F)(F)F)cc3)CC2)nc2c1nnn2Cc1cccc(F)c1,-8.3%
10,CCCCN(C(=O)CCCc1nc2ccccc2c(=O)[nH]1)c1c(N)n(CC(C)C)c(=O)[nH]c1=O,-5.68%
11,CCOC(=O)N1CCN(C(=O)c2noc(C(C)C)c2[N+](=O)[O-])CC1,-4.21%
12,Cc1cccc(NS(=O)(=O)c2cc3c(cc2C)N(C)CCO3)c1,8.56%
13,CCOc1ccc(N2C(=O)C3Sc4[nH]c(=O)sc4C(/C=C/c4ccccc4)C3C2=O)cc1 (stereo not drawn),1.26%
14,O=C(O)C(=O)O.O=S(=O)(c1ccc(F)cc1)N1CCN(CC2CC3C=CC2C3)CC1 (stereo not drawn),9.53%
15,C/C(=N/NS(=O)(=O)c1ccc(C(C)(C)C)cc1)c1ccc2c(c1)OCO2,-3.17%
16,Cc1cccc(C)c1NC(=O)COC(=O)c1ccc2[nH]c3c(c2c1)CCCC3,4.47%
17,O=C(O)CSCC(=O)N1CCN(c2cc(C(F)(F)F)nc3ccccc23)CC1,23.5%
18,COc1cc(/C=C2/SC(=S)N(Cc3ccccc3)C2=O)ccc1O,3.35%
19,CCOC(=O)C1=C(CSc2nc(-c3ccccc3)ccc2C#N)OC(N)=C(C#N)C1c1ccc(OC)cc1 (stereo not drawn),6.85%
20,C=CCNC(=O)c1cn(CC)c2cc(N3CCN(C(=O)c4ccco4)CC3)c(F)cc2c1=O,-63.6%
21,Cc1c(-c2cccc(Cl)c2)nc2ccccc2c1C(=O)OC/C(O)=C(\C#N)c1nc2ccccc2[nH]1,6.73%
